{
  "source": "the supplement of paper PMC9446081",
  "note": "Screen size: about 39,000 compounds; about 220 (0.56%) showed activity. Some of the results follow.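 Further: static incubation at 37 °C against the wild-type strain, values averaged over two biological replicates.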",
  "data": [
    {"tested_on": "Escherichia coli K-12 BW25113", "experiment": "relative growth (OD600 normalised to plate interquartile mean) (fraction); higher = less growth inhibition, active = 0.2 or less", "settings": "50 µM; LB; incubation time: overnight (16-24 h)", "values": [
      {"smiles": "CN1C2CCC1CC(OC(c1ccccc1)c1ccccc1)C2.CS(=O)(=O)O", "note": "(configuration not stated)", "relative growth": "inactive: 1.03"},
      {"smiles": "COc1ccccc1-c1cnc2c(c1)C(=O)N([C@@H](C)CO)C[C@@H](C)[C@H](CN(C)C(=O)c1cccnc1)O2", "relative growth": "inactive: 1.02"},
      {"smiles": "C[C@@H]1CCCCO[C@@H](CN(C)C(=O)Nc2ccccc2)[C@H](C)CN([C@@H](C)CO)C(=O)c2cc(NC(=O)c3ccccc3)ccc2O1", "relative growth": "inactive: 0.966"},
      {"smiles": "C[C@@H]1CCCCO[C@@H](CN(C)C(=O)Nc2cccc3ccccc23)[C@H](C)CN([C@@H](C)CO)C(=O)c2cc(NC(=O)C3CCCCC3)ccc2O1", "relative growth": "inactive: 1.02"},
      {"smiles": "C[C@H](CO)N1C[C@H](C)[C@@H](CN(C)Cc2ccncc2)OCCCC[C@H](C)Oc2ccc(NC(=O)Nc3ccc(C(F)(F)F)cc3)cc2C1=O", "relative growth": "inactive: 1.01"},
      {"smiles": "C[C@@H](O)C#Cc1cnc2c(c1)C(=O)N([C@@H](C)CO)C[C@H](C)[C@@H](CN(C)Cc1cncnc1)O2", "relative growth": "inactive: 1.01"},
      {"smiles": "C[C@@H]1CN([C@H](C)CO)C(=O)c2cc(NC(=O)Nc3ccc4c(c3)OCO4)ccc2O[C@@H](C)CCCCO[C@H]1CN(C)S(=O)(=O)c1ccc(Cl)cc1", "relative growth": "inactive: 1.04"},
      {"smiles": "NNC(=O)[C@@H](N)Cc1ccccc1", "relative growth": "inactive: 1"},
      {"smiles": "Cc1noc(C)c1S(=O)(=O)Nc1ccc2c(c1)C(=O)N([C@@H](C)CO)C[C@H](C)[C@@H](CN(C)C)OCCCC[C@@H](C)O2", "relative growth": "inactive: 0.994"},
      {"smiles": "CS(=O)(=O)Nc1ccc2c(c1)[C@@H]1C[C@H](CC(=O)NCC3CC3)O[C@H](CO)[C@@H]1O2", "relative growth": "inactive: 1.01"},
      {"smiles": "CC(C)NC(=O)Nc1cccc2c1O[C@H](CN(C)Cc1ccc(Oc3ccccc3)cc1)[C@H](C)CN([C@@H](C)CO)C2=O", "relative growth": "inactive: 0.985"},
      {"smiles": "c1cnc2c(SCc3nc4ccccc4s3)cccc2c1", "relative growth": "inactive: 0.997"},
      {"smiles": "C[C@@H]1CCCCO[C@H](CN(C)C(=O)c2ccccc2)[C@H](C)CN([C@@H](C)CO)C(=O)c2cc(NC(=O)Nc3cccc4ccccc34)ccc2O1", "relative growth": "inactive: 1.04"},
      {"smiles": "C[C@H]1CN([C@@H](C)CO)C(=O)c2cc(NC(=O)Nc3ccccc3)ccc2O[C@@H]1CN(C)C(=O)Nc1ccc(C(F)(F)F)cc1", "relative growth": "inactive: 1"},
      {"smiles": "CO[C@@H]1CN(C)C(=O)c2ccc(NC(=O)C3CCCCC3)cc2OC[C@@H](C)N(C(=O)Nc2ccc(C(F)(F)F)cc2)C[C@H]1C", "relative growth": "inactive: 1"},
      {"smiles": "C[C@H](CO)N1C[C@H](C)[C@@H](CN(C)Cc2ccncc2)Oc2c(NS(=O)(=O)c3cn(C)cn3)cccc2C1=O", "relative growth": "inactive: 0.992"},
      {"smiles": "NCC[C@H]1CC[C@@H](NC(=O)C2CCC2)[C@@H](CO)O1", "relative growth": "inactive: 1.02"}
    ]}
  ]
}
